# Laboratory results: the supplement of paper PMC3334620
# In all, about 33,000 sequences were measured (“E-score (-0.5 to 0.5)”: median about -0.013, highest 2% from about 0.3 on). Some of the results follow.
# Biological target: T1, Msn1 (UniProt P22148)
# T1 sequence: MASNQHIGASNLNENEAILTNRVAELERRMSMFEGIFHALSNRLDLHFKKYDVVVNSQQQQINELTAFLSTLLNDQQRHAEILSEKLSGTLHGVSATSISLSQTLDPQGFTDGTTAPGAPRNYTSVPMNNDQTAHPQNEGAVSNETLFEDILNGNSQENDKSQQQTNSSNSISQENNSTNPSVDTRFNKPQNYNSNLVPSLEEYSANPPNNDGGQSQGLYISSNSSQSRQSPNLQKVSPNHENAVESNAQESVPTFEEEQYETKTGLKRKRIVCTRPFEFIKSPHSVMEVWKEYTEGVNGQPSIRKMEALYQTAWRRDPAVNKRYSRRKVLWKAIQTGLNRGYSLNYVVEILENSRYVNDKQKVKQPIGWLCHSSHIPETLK
# Test: PBM E-score (8-mer binding enrichment) (E-score (-0.5 to 0.5)); higher = stronger / more preferred TF binding; most listed sequences are background and not binding sites
# Conditions: protein concentration: 200 nM; construct: GST-full length
# In short: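 E-scores (a modified Wilcoxon-Mann-Whitney statistic) were assigned by the Universal PBM Analysis Suite to every ungapped eight-base word pooled with its reverse complement. The input came from universal all-10-mer Agilent arrays made double-stranded by primer extension and probed with GST-tagged yeast transcription factors at about 100-200 nM. Fluorescent anti-GST detected bound protein, and masliner normalised the scans.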
row,Sequence,PBM E-score
1,CAGAACAA,0.296
2,CCTCGAGC,-0.0308
3,AGCGAACT,-0.0798
4,GACATATC,0.451
5,CAACATCG,0.0789
6,ACGGGTAT,-0.0412
7,GGCAACTA,0.0447
8,ACATAGGG,-0.00128
9,GCTTTACA,0.0483
10,GATAAACA,0.0551
11,CGGATCAG,-0.0123
12,CAACGTTG,0.128
13,GGCGTCCA,-0.0363
14,AATTCGGA,0.151
15,CTCGTTAA,-0.00553
16,ACGTTTAA,0.0902
17,ATCTTTGC,0.0934
18,AGTCAAAC,0.0149
19,GCAAACAA,0.0522
20,CGAGGCTA,-0.117
21,CAAGTAAC,0.0554
22,AACGAGTT,-0.07
23,CAACTAAA,0.107
24,GCACTCTA,-0.0404
25,ATGTATGA,0.186

row,Sequence,PBM E-score
1,CCCATTGA,-0.248
2,GCCATCAC,-0.175
3,AACTAGTA,0.00606
4,AGAATACT,0.0795
5,AAGTGTCC,0.366
6,CCCAGAAG,-0.159
7,CAACCAGA,0.102
8,AGCCTTGG,-0.0975
9,ACGATCAG,-0.0455
10,TGAAAGCA,0.139
11,CTGAGCCA,0.0268
12,AACATCTC,0.123
13,GTAACCTA,-0.1
14,GCTCCAAC,-0.111
15,AAACTTTG,0.102
16,AACGAAAC,-0.0147
17,GGGCCCTA,-0.196
18,GGCGTCAC,-0.195
19,CCTAAAAC,-0.0537
20,ATCGCCAC,-0.07
21,AGGATTAC,-0.243
22,CTTCCACA,0.00836
23,TACTCATA,-0.0181
24,ATGTTAAG,0.091
25,GGTCTGGA,-0.125

row,Sequence,PBM E-score
1,ACGAGCTA,-0.192
2,GAAATCCC,0.0541
3,CTTGATAC,0.23
4,GGACACCA,0.255
5,GAGCACTC,-0.0598
6,CAGGCGCC,-0.0891
7,GCCATAAC,-0.0124
8,AAGCGCAC,-0.17
9,AGGGTTGG,-0.02
10,CAATTTTA,0.211
11,TACCGATA,0.0569
12,AATTGTCT,0.406
13,GCCTCAGA,-0.122
14,CGAACTCC,0.226
15,CAACCCCG,-0.101
16,AACCCAGC,-0.188
17,GCGGACAC,0.162
18,GCCTATAA,0.0368
19,AGAATTTG,0.158
20,GTGTCAAC,-0.139
21,AAAGCTGG,-0.045
22,ATGCAACA,-0.101
23,CACAGTCG,-0.072
24,TATATCCA,0.0098
25,AACCAGGG,-0.183

row,Sequence,PBM E-score
1,GTAGGAAA,-0.0401
2,ATATATAC,0.252
3,CATTCAAA,0.0752
4,AGCTCCCG,-0.253
5,GCTCCGTA,-0.0119
6,CAACCCGA,0.0882
7,ATTAATTA,0.0938
8,AGGAGTGA,-0.125
9,AAACTACC,0.0926
10,CGTTTCGA,-0.0731
11,ACGTGGCC,-0.156
12,AAACACGG,0.0842
13,ACGCGAAG,0.0703
14,AGAGGGGG,-0.421
15,ACATGGCA,0.123
16,ACATTGTG,0.207
17,AACCCCAT,-0.0934
18,CAAGCACG,-0.0529
19,GACTCCCC,-0.207
20,GCGGCGTA,-0.174
21,AACCCCAC,-0.257
22,GCGACAGC,-0.0585
23,AAGATGCT,-0.0645
24,AAGAATGA,0.119
25,CCCGTCCG,-0.274

row,Sequence,PBM E-score
1,ACTCCAGC,-0.217
2,CCAATCCA,-0.251
3,AACCTTGT,-0.0697
4,CAGGGGTA,-0.192
5,CGCTAGCG,-0.19
6,ACCACTAG,-0.179
7,ACCGTCAT,-0.00651
8,CGGCCCAG,-0.186
9,CCTCGACG,-0.0823
10,TCTTCCCA,-0.316
11,CGTAGGGC,-0.199
12,AATTGACA,0.139
13,ACGCCGCA,-0.101
14,TCCCTCCA,-0.169
15,CAGCGGTA,0.0912
16,CATAGAAG,0.0331
17,AGCCTAGA,-0.217
18,ATTGTCAA,0.12
19,AACTAACC,0.0819
20,ACCTAAGT,0.117
21,CGAGAGCC,-0.197
22,CAGTTACC,-0.0176
23,ACGGGACT,0.0899
24,GATAAATC,-0.0458
25,AAAAGCGC,-0.00424

row,Sequence,PBM E-score
1,GAAATGGC,-0.165
2,TCATTCCA,-0.0404
3,GTGCCGCA,0.149
4,CAATGGCG,-0.0489
5,TCGAGGCA,0.0877
6,AGCTCGAA,0.0691
7,GCCCACAA,-0.0701
8,ACGGCACC,-0.185
9,CATTCCTA,0.112
10,ACTCCTTA,-0.159
11,TCGAATCA,-0.0887
12,AAGTATAA,0.0678
13,CAGCCGGA,0.186
14,AATACTGC,-0.0153
15,CGCTGCAC,-0.0856
16,GCCGTAAC,-0.116
17,CTGTTAAA,-0.0535
18,AAATCGAG,0.0826
19,ACCAGGGG,-0.383
20,GGTTTGTA,0.0228
21,ACTAATAC,0.174
22,CGGCCTTC,0.00796
23,CCATGTAC,0.216
24,GACCCACA,0.0689
25,ACAATTCG,0.265

row,Sequence,PBM E-score
1,AGATGTTC,0.0457
2,CGGCACAA,-0.0522
3,AAATCCGC,-0.0186
4,ATACGAAA,0.215
5,CCGCCCGA,-0.0838
6,CAAGCCAC,-0.208
7,AGACCCTA,-0.246
8,AAATACGC,0.112
9,AAGTCTTC,-0.047
10,ATTCAGCG,-0.0874
11,CATTTTTC,0.248
12,AACAATAC,0.158
13,ATTACAAA,0.302
14,TCACCACA,0.0982
15,CAGGTATC,-0.0118
16,CAGACAGC,-0.0406
17,GTGCGTAA,0.0253
18,ACAAGAGC,0.0213
19,ATGTATTG,0.056
20,AATTCCTG,0.0411
21,CTTCGCAC,0.0006
22,TGGAACAA,0.183
